Some of the results follow.
B1: chr14:103519669:103519777:-|3pUTR|ENSG00000166165|unk|FALSE|unique (ssRNA)
RNA: GGGAGUUCUACAGUCCGACGAUCCUGAUGUUCGCCGUCUGGCGAGCCCUUAGCCUUGCUGUAGAGACUUCCGUCACCCUUGGUAGAGUUUAUUUUUUUGAUGGCUAAGAUACUGCUGAUGCUGAAAUAAACUAGGGUUUUGGCCAACAGAGGAUUGAGCAUCA
B2: chr9:113264340:113264441:+|3pUTR|ENSG00000136868|msi1|FALSE|unique (ssRNA)
RNA: GGGAGUUCUACAGUCCGACGAUCAAAGUCUGCAUUUGAUAUAAUGCCUUAAUUACUGGGUCUACAAUUAAUGUUGACUGUUUUAGAUUGUAAGCUCCUGGAGAGCAGUAUUGCUGUAGUAGGAAUGUUUUAACAGUGUCAUAUCAACAGAGGAUUGAGCAUCA
B3: chr15:69271217:69271318:+|3pUTR|ENSG00000138604|msi1|FALSE|bound_elsewhere (ssRNA)
RNA: GGGAGUUCUACAGUCCGACGAUCGCAACAGCAAGUUGAUUUCUUGUGAUCCCAGAAUUUUCUAAGAGGAUGAGUUGAAUCUAUAGCAGCAUUGUCAGUACAGACCAGUGGUUCUCAAACUUUAAAAUGCCUCAGCAUCACUUGCAACAGAGGAUUGAGCAUCA
B4: chr8:41543231:41543332:+|3pUTR|ENSG00000147536|msi1|FALSE|unique (ssRNA)
RNA: GGGAGUUCUACAGUCCGACGAUCAAACCAUUAUUAAAUUUCCAUUCUGCAGCAGAAGGCACCUCUGGACGGCUCCCGGCUUGUAGUUUAAUGAAGUAUGUGCUCCCUGCUGUUAACCCGCAGCCCUCCCCAACUCUCCAGCAGCAACAGAGGAUUGAGCAUCA
B5: chr4:173322470:173322571:+|3pUTR|ENSG00000109586|msi1|FALSE|bound_elsewhere (ssRNA)
RNA: GGGAGUUCUACAGUCCGACGAUCUGUAGCAUUCACUCCCUUACCUACUGGCAUUCCCAGUGCCCUCUGUCCAUACCUACUUCUAGGAUUGCAAAGGAGUCUUCCAACUAGAGAAAAAUUGUCCACUGACAUUUGGGAUUUACUCAACAGAGGAUUGAGCAUCA
B6: chr12:71585298:71585408:+|3pUTR|ENSG00000139292|unk|FALSE|unique (ssRNA)
RNA: GGGAGUUCUACAGUCCGACGAUCUUGUUAACUCACUCAUAUUGAGAUCAUUUUUAGAGAUACCAGGUUUUAUGUAUCAGCACUAGAUGGUUCCACCCUCAUGGGAUAAAACUGCUUACAAGUAUUUUGAAAGAAAAACUGACCCAACAGAGGAUUGAGCAUCA
B7: chr7:56063203:56063317:+|3pUTR|ENSG00000146731|unk|total|mutant (ssRNA)
RNA: GGGAGUUCUACAGUCCGACGAUCCCCAUAUGAAAAAAGGAGAGAACACUGGCAUCUGUUGAAAUUUGGAAGUUCUGAAAUUACCGUAUUUUUAAAAAUUGCACUGAAGUGUAUACACAUAAAGCAGGUCUUUUAUCCAGUGAACAACAGAGGAUUGAGCAUCA
B8: ENSG00000198589:be:win_6501|CDS|ENSG00000198589|bound_else_gene|NA|bound_elsewhere_windowed (ssRNA)
RNA: GGGAGUUCUACAGUCCGACGAUCCUAUCUACCUCGUGUUGGCGUUGGAACAAGUUUUGGAUUGCCUCAAACCAGACGUAUUUCAUUAGCUAGUCCACGUCAGCUUUUUAAGGCUUCUAAUAUGACCCAGCGAUGGCAACACAGCAACAGAGGAUUGAGCAUCA
B9: chr1:169124931:169125019:+|5pUTR_CDS|ENSG00000143153|msi1_unk|total|mutant (ssRNA)
RNA: GGGAGUUCUACAGUCCGACGAUCGAAAUUUCCUUUCGUCCUAAUGAUCCCAAGAGCUAUGAGGCAUAUGUACUGAACACCGUCCGGUUCCUGGAAAAGUACAAAGAUUCAGCCCAGAGGGAUGACAUGAUUUUUGAAGAUUGUCAACAGAGGAUUGAGCAUCA
B10: ENSG00000146918:stop:overlap|stop_codon|ENSG00000146918|stop_codon|NA|stop_codon (ssRNA)
RNA: GGGAGUUCUACAGUCCGACGAUCGGGCUCUAACUCCUGGACUCCUGGACUCAAUCUAUCCUUCUGCCUCAGUCCCAAUUGGCUAGGACUGCAGGCACACACCACCAGACCCAGCUAAUGUAAUUUCUAUCUAUAUGUGUCUUUCAACAGAGGAUUGAGCAUCA
B11: chr11:59152587:59152688:+|CDS|ENSG00000166801|msi1|total|mutant (ssRNA)
RNA: GGGAGUUCUACAGUCCGACGAUCAUUGAAAACUUCAAGAAAAAAAUGAAAGUAAAAAAUGGGGAAACAUUAUUUGAAUUGCACCGAACAACGUUUGGGAAAGUAACAAAAAAUUCUUCUUCGAUUAAAGCCGUGAAACUUCUUCAACAGAGGAUUGAGCAUCA
B12: ENSG00000198589:be:win_2801|CDS|ENSG00000198589|bound_else_gene|NA|bound_elsewhere_windowed (ssRNA)
RNA: GGGAGUUCUACAGUCCGACGAUCAUAUAUUUAGGGAACAGCAAGGAAAAGUUGAUGAAGAAAUAGGGCUGUGUUCUUCAACUUCAGUUCAAGCAGCCUCUGGCAUUAGAAGGGAUAUUAAUGUUUCAGUAGGAUCCCAGCAACCAACAGAGGAUUGAGCAUCA
B13: chr1:86745841:86745942:+|3pUTR|ENSG00000097033|msi1|FALSE|bound_elsewhere (ssRNA)
RNA: GGGAGUUCUACAGUCCGACGAUCAUGGUGCAGUUCAGAAUUGUUUAAAUAAGCUCUGUGCCACUGAGCUUAAUCUGAAAGUAUAGUGACAUGUGAAGGAUGCACAUAUGAAUGAAAAACUAAAAUAAUUGUAGGCUCUUCUAUCAACAGAGGAUUGAGCAUCA
B14: chr4:124666837:124666938:-|3pUTR|ENSG00000151458|msi1|total|mutant (ssRNA)
RNA: GGGAGUUCUACAGUCCGACGAUCAAUGAUUUCUUGGCAGUUUAAAAAAAAUAUUUUACCGCCGUUCCGGGAGCUGCUUUAAGCCGUUUAAAUCUGGAUUUUCCCAGCCGAAUUCUUCUCAUCUCUGGCUAAACAUGUCAGAACCAACAGAGGAUUGAGCAUCA
B15: chr12:26337790:26337891:-|3pUTR|ENSG00000123104|unk|FALSE|unique (ssRNA)
RNA: GGGAGUUCUACAGUCCGACGAUCAAGAUCUAUGUAGAAUAUAAAGGAAGCCUGAACCAAUCCUUCCACAUACUGUUAAGAUGUAGACUUGGAACAAAGCUGUUGGGACCCAGAGCAAUGAAUUUUUGAACUGAAGCUACUGGUCAACAGAGGAUUGAGCAUCA
B16: chr5:40945159:40945374:+|CDS|ENSG00000112936|unk|FALSE|unique (ssRNA)
RNA: GGGAGUUCUACAGUCCGACGAUCGAAUUUUACAAUAGUACUUGGUCUUAUGUAAAACAUACGUCGACAGAACACACAUCAUCUAGUCGGAAGCGCUCCUUUUUUAGAUCUUCAUCAUCUUCUUCACGCAGUUAUACUUCACAUCAACAGAGGAUUGAGCAUCA
B17: chrX:150470157:150470258:+|CDS|ENSG00000013619|unk|total|mutant (ssRNA)
RNA: GGGAGUUCUACAGUCCGACGAUCUCCAAAUGAGCCCGAUCUUGAGAAGAUACUGGGGACGAAGCCAGAAGAGCCACUGGUUUCCGAUCAUCCCCAGGCAACCCUAAGCACAACUCCCAAGCCUUCGGUUCAGAUGUCACACUUCAACAGAGGAUUGAGCAUCA
B18: ENSG00000144749:stop:overlap|stop_codon|ENSG00000144749|stop_codon|NA|stop_codon (ssRNA)
RNA: GGGAGUUCUACAGUCCGACGAUCCACUGACAGGACAGCUCCCCGGGAAACAGAGGGUGCCACUGCUGUUGGCACCAAAAAGCUAGGUUUUGUCUACCUCAGUUCUUGUCAUACCAAUCUCUACGGGAAAGAGAGGUAGGAGAGCAACAGAGGAUUGAGCAUCA
B19: chr12:108783210:108783311:-|3pUTR|ENSG00000084112|msi1|FALSE|unique (ssRNA)
RNA: GGGAGUUCUACAGUCCGACGAUCUGUUUAUCCUGCUAUGCAGUUUUACAUUGUGUGUUCACAUCUAUUCCAAGGAGCCUUGCUAGAAACAACACUGGCGGUUCCUGCAGGCCAGGCAGGCAUUGGCCCAUGCUGUGUCCCAUACAACAGAGGAUUGAGCAUCA
B20: chr3:142163631:142163732:-|3pUTR|ENSG00000175066|unk|FALSE|unique (ssRNA)
RNA: GGGAGUUCUACAGUCCGACGAUCCCCAAAGUGCUGGGAUUGCAGCCGUGAACCACUGCACCCAGCCAAUGGGUGUAAUUUCAUAGGAAAUAAUUCUUUUUGUCAGAAUGUACUGAAUUGUAAUAUUAAUACCUGAAAAUUUGUCAACAGAGGAUUGAGCAUCA
B21: chr14:100883974:100884119:-|CDS|ENSG00000254656|unk|total|mutant (ssRNA)
RNA: GGGAGUUCUACAGUCCGACGAUCGUUCUAUAACGACCGUCUGAGAGUUGGCUAUGUCAUCAAUCACCUGUCCGGCUUGGCAUCCGAAUGGGCCAAAGCUCUACUGCAGGAAAACAGCCCCCUGAUCGGAGACUUCCCAGCCUUCAACAGAGGAUUGAGCAUCA
B22: chr15:31475397:31483293:-|three_prime_utr|ENSG00000169918|control|control|control (ssRNA)
RNA: GGGAGUUCUACAGUCCGACGAUCUGUACGUGUUUGGUCAAACGUUCCUAAUGGUGCCUGAACCUACACUGACGCCACUCAGGUAGUAGACGGAUAGGAAACAAGUCAUACUGUUGGAAGUGGGUGUGCUAGCCUAGCAUCUGCCAACAGAGGAUUGAGCAUCA

Biological target: MSI1 full-length (mouse, UniProt Q61474 1-362)
Assay: nsRBNS (natural sequence RNA bind-n-seq); RBNS binding buffer (assumed for nsRBNS): 25 mM Tris pH 7.5, 150 mM KCl, 3 mM MgCl2, 0.01% Triton X-100, 500 ug/ml BSA, 20 U/ml SUPERase-In, 4 C; UNK is unkempt and MSI1 is Musashi-1; names of the RNAs are library labels; protein concentration not given here; high values mean tight binding

Sequence of UniProt Q61474 (Q61474 whole entry): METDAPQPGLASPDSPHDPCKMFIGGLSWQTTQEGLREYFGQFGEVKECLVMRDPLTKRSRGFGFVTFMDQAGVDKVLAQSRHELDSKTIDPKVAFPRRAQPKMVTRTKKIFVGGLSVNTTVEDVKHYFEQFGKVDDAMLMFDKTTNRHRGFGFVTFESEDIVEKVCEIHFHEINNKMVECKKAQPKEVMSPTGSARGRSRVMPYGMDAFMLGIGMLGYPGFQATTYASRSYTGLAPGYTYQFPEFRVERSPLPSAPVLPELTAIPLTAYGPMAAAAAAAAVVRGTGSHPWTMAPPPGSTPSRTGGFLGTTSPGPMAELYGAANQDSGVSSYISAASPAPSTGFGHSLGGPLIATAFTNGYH

Compared with B1, B2 is higher in binding signal: 0.356 enrichment R for the first, 2.88 enrichment R for the second.

Going from B3 to B4, the binding signal rises from 0.371 enrichment R to 5.04 enrichment R.

Compared with B5, B6 is higher in binding signal: 0.538 enrichment R for the first, 1.05 enrichment R for the second.

First: B7
Second: B8
The binding signal of the first is lower: 0.545 enrichment R for the first, 2.29 enrichment R for the second.

First: B9
Second: B10
The binding signal of the first is lower: 0.314 enrichment R for the first, 0.472 enrichment R for the second.

First: B11
Second: B12
The binding signal of the first is lower: 0.281 enrichment R for the first, 4.23 enrichment R for the second.

Compared with B13, B14 is lower in binding signal: 0.799 enrichment R for the first, 0.225 enrichment R for the second.

First: B15
Second: B16
The binding signal of the first is lower: 0.55 enrichment R for the first, 2.79 enrichment R for the second.

Going from B17 to B18, the binding signal rises from 0.357 enrichment R to 0.64 enrichment R.

Compared with B19, B20 is higher in binding signal: 0.613 enrichment R for the first, 2.06 enrichment R for the second.

First: B21
Second: B22
The binding signal of the first is lower: 0.31 enrichment R for the first, 0.364 enrichment R for the second.

— paper PMC12136788
